Among the data in PMC6662813 (Scientific Reports, 2019) are Kd values, retold here.

This experiment addresses T1, His-cRaf-(R), regulatory domain fragment of cRaf (aa 51-187) (mouse, UniProt Q99N57-2 in part).
T1 construct: cRaf (Raf1), mouse cDNA NM_001356333.2, aa 51-187 (regulatory domain with the RBD and the cysteine rich domain), in pET-32a; also called His-c-Raf fragment; cRaf RBD; source: E. coli Rosetta DE3 (pET-32a), captured on Ni-NTA agarose beads (pull-downs); purified (Ni-NTA) and concentrated (NMR)
Briefly: NMR titration; 1H-15N HSQC at 25 C; 19 uM 15N-labeled Crabp1 with atRA (40 uM or 21 uM) and increasing unlabeled His-c-Raf-(R); 30 mM d11-Tris-d3-acetate pH 6.2, 75 mM Na2SO4, 10 uM ZnCl2, 1 mM DTT; KD roughly estimated from the shifts of three resonances. Particulars: both partners purified.

B1: His-Crabp1 (cellular retinoic acid binding protein 1) (natural protein)
chain: not shown
notes: uniformly 15N-labelled for the NMR titrations; No removal of the His tag is described; also called purified His-Crabp1; 15N-labeled Crabp1; source: E. coli Rosetta DE3 (pET-15b), purified (Ni-NTA); not shown: His6, N-terminal, kept
Turning to B1, the dissociation constant Kd – broadly, the equilibrium constant for the complex coming apart – was ~40 µM.
